# Reference: PubChem BioAssay AID624172 (National Center for Advancing Translational Sciences (NCATS), 2012)
# The whole screen tested about 380,000 compounds, of which about 25 (0.007%) were called active. Inconclusive means that the source gave no clear call. Such entries were picked first, then a sample of the others. The call rests on the fitted dose curve; in most records, active means well fitted activation curve with a large enough effect; inconclusive means small, poorly fitted or top-dose-only effect; inactive means no such curve, though single readings can be large or run the other way. Potencies of inconclusive entries are left out as doubtful fits.
# Biological target: Glucagon-like peptide 1 receptor (Homo sapiens) (UniProt P43220)
# Assay: qHTS of GLP-1 Receptor Agonists; on activation: % of control where 0% means no effect
# Details: HEK293 GLP-1R CRE-luciferase, luminescence, 4-6 h, cells express a hypersensitive GLP-1R form; activation: at 45.6 µM (top of the series) unless noted
# Potency means the concentration at half of the fitted maximal effect; tags describe the fitted curve by direction and shape.
# UniProt P43220, sequence (P43220 whole entry, looked up): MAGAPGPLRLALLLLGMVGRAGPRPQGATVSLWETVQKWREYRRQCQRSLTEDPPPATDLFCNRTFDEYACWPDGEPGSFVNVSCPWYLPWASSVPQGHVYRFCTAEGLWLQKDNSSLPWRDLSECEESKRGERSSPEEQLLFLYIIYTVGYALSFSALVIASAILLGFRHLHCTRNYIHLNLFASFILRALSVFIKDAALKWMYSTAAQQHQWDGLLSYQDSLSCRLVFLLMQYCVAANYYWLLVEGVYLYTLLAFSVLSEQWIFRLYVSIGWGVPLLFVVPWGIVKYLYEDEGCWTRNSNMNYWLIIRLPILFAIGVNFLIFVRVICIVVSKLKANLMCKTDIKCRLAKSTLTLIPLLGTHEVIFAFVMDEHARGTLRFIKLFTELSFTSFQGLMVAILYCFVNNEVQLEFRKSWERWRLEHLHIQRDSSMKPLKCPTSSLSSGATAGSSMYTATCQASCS
Compound,activation,Potency
CC(=O)Nc1sc2c(c1-c1nc3ccccc3s1)CN(C(C)C)CC2,inactive: -19.2%,–
CCCCN=C1NN=C(c2cccc([N+](=O)[O-])c2)CS1,–,"inconclusive [activator, partial curve]"
Cc1ccnc(NC(=O)C23CC4CC(CC(C4)C2)C3)c1,inconclusive: 109% [activator],–
C=CCc1ccc(OCCCCNC2CCCC2)c(OC)c1,inactive: -0.733%,–
COC(=O)C1=C(CS(=O)(=O)c2ccc(OC)c(OC)c2)NC(=O)NC1c1ccc(O)c(OC)c1 (stereo not given),–,"inconclusive [activator, single point]"
CCCn1cnc2c(SCc3ccccn3)nc(N)nc21,–,"inconclusive [activator, partial curve, poor fit]"
Cn1c(SCc2ccccc2F)nnc1-c1ccccn1,inactive: -1.92%,–
O=S(=O)(Nc1ccc(-c2ccc3nncn3n2)cc1)c1cccc(F)c1,–,"inconclusive [activator, single point]"
COc1ccc(/C(N)=N/OC(=O)c2c(-c3ccccc3Cl)noc2C)cc1OC,–,"inconclusive [activator, partial curve, poor fit]"
CCN(CC)CC(=O)Nc1scc2c1c(=O)oc1ccccc12,–,"inconclusive [activator, partial curve]"
Clc1ccc(C2=Nn3c(nnc3-c3cc(-c4ccccc4)n[nH]3)SC2)cc1,inactive: 7.46%,–
O=C(c1nc2ccccc2s1)N1CCN(c2ccccn2)CC1,–,"inconclusive [activator, partial curve, poor fit]"
O=C(Nc1nnc(C2CC2)o1)c1ccc(S(=O)(=O)N2CCc3ccccc3C2)cc1,inactive: -8.92%,–
COc1cc2c(cc1OC)-c1cc(NC3CCCC3)nc(=O)n1CC2,–,"inconclusive [activator, partial curve, poor fit]"
CCCOc1ccc(S(=O)(=O)NCCN2CCOCC2)c2ccccc12,–,"inconclusive [activator, full curve, poor fit]"
COC(=O)c1oc2ccc(Br)cc2c1-n1cccc1,–,"inconclusive [activator, full curve, poor fit]"
COC(=O)c1cc(C(=O)N2CCN(C(=O)c3ccco3)CC2)cc([N+](=O)[O-])c1,inactive: -13.1%,–
FC(F)(F)c1cccc(NC(=S)NC(c2ccccc2)c2ccccc2)c1,inactive: 5.49%,–
COc1cccc(C#Cc2c(C=O)n(C)c3ccccc23)c1,inactive: -5.57%,–
c1cc2ccc3ccc(CN4CCOCC4)c4ccc(c1)c2c34,–,"inconclusive [activator, single point]"
